Measurements published in PubChem BioAssay AID1466 (National Center for Advancing Translational Sciences (NCATS), 2008).
The campaign covered roughly 200,000 compounds. About 10 (0.005%) were called active. The inconclusive results got no clear call from the source; some entries with a clear call stand among them for comparison. Calls come from the whole dose curve; as a rule, active = well fitted inhibition curve with a large enough effect; inconclusive = small, poorly fitted or top-dose-only effect, or effect the other way, or another doubt; inactive = no such curve, though single readings can be large or run the other way. Potencies beside an inconclusive call are fits to weak or partial responses and may not hold up.

What follows are compounds tested against Lysosomal alpha-glucosidase (Homo sapiens) (UniProt P10253) (assay: qHTS Assay for Inhibitors of Human alpha-Glucosidase as a Potential Chaperone Treatment of Pompe Disease). Conditions: purified human GAA, 4-MU-alpha-glucoside fluorescence; activity change, negative = inhibition: at 76.9 µM (top of the series) unless noted.
Method in brief: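 Endpoint fluorogenic read: 20 min room-temperature reaction of 4 nM human alpha-glucosidase with 400 uM 4-methylumbelliferyl-alpha-D-pyranoside, pH 5.0, quenched with 1M NaOH/1M glycine pH 10. AC50 from Hill modeling.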
Potency is the fitted concentration of half-maximal effect; tags give direction and shape of the fitted curve.
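Throughout, for activity change, negative = inhibition: plate controls were uninhibited enzyme wells for no effect and no-enzyme background for full effect.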

Activity change, negative = inhibition, inconclusive:
CCn1cc([N+](=O)[O-])c(C(=O)N2N=C(c3ccc4ccccc4c3)CC2c2cc(Br)ccc2O)n1 (configuration not stated) -17.3% [inhibitor], C#CCN(Cc1ccco1)C(=O)c1cc(COc2ccc(F)cc2Cl)on1 15.9% [activator], NC(=O)COC(=O)c1cc([N+](=O)[O-])ccc1NCCO -20.7% [inhibitor], c1ccc(-c2csc(-c3ccncc3)n2)cc1 10.6% [activator], COc1ccc(-c2cc(C(F)(F)F)n3nc(C(=O)NCCCN4CCOCC4)cc3n2)cc1 17.1% [activator], Cc1ccccc1-c1nnn(C/C(N)=N/O)n1 18.2% [activator], COC(=O)c1ccc2c(=O)n(CCN3CCOCC3)c(=S)[nH]c2c1 -15.3% [inhibitor], O=C(O)c1ccc2c3c(cccc13)C(=O)N(c1cccc3ccccc13)C2=O 18.4% [activator], Cc1ccc(NC(=S)/N=C(\N)Nc2nc(C)c3cc(C)c(C)cc3n2)cc1C 8.14% [activator], CCc1nnc(NC(=O)Cc2ccc(OC)c(OC)c2)s1 18.1% [activator], C=CCNC(=O)CC1C(=O)NCCN1Cc1ccc(-c2ccccc2)cc1 (configuration not stated) 12% [activator]

Activity change, negative = inhibition, inactive:
COc1cc(-c2nc3cnccn3c2Nc2ccc3c(c2)OCCO3)ccc1O -8.39%

Potency, inconclusive:
CNC(=O)c1ccc(-c2ccc(OC)cc2)s1 39.8 µM [activator, single point], O=C(CC1SC(=Nc2ccccc2F)N(CCN2CCOCC2)C1=O)Nc1ccc(F)cc1F (configuration not stated) 50.1 µM [inhibitor, single point], COc1ccc2[nH]c3nc(SCc4nnc(-c5ccccc5)o4)nnc3c2c1 11.2 µM [inhibitor, partial curve], Cc1ccc(-c2nc(CN(C)C3CCOC3)c(C)o2)s1 (configuration not stated) 22.4 µM [inhibitor, single point], Cc1cccc(NC(=O)c2cc(Cl)nc3ccccc23)c1 50.1 µM [inhibitor, single point], Cc1ccc(NC(=O)CC2=NC(=O)C(CC(=O)Nc3ccccc3F)S2)cc1 (configuration not stated) 39.8 µM [inhibitor, single point], N#CCC1c2ccccc2CCN1C(=O)Nc1cccc(Cl)c1 (configuration not stated) 25.1 µM [inhibitor, single point], O=C(O)c1cc(-c2ccco2)nc2ccccc12 39.8 µM [activator, partial curve], COc1cccc(C2=NOC(C(=O)Nc3ccc4c(c3)OCO4)C2)c1 (configuration not stated) 5.01 µM [inhibitor, single point], CC1(C)C([N+](=O)[O-])C(c2ccccc2O)NC(c2ccccc2O)C1[N+](=O)[O-] (configuration not stated) 5.01 µM [inhibitor, full curve, poor fit], CCOc1ccc2nc(NCCNS(=O)(=O)c3ccccc3)c(C#N)cc2c1 31.6 µM [activator, single point], CC(C)C(NC(=O)c1ccc(S(=O)(=O)N2CCOCC2)cc1)c1nc2ccccc2[nH]1 (configuration not stated) 35.5 µM [inhibitor, single point], CN1CCc2cccc3c2[C@@H]1Cc1ccc(O)c(O)c1-3 56.2 µM [inhibitor, single point], CCC(=O)NCCNc1nc2cc(C)cc(C)c2cc1C#N 44.7 µM [activator, partial curve], CCOc1ccc(N(CC(=O)N2CC=C(c3ccccc3)CC2)S(=O)(=O)c2c(C)noc2C)cc1 31.6 µM [inhibitor, single point], COCCNC(=O)/C(C#N)=C/c1cccc(NC(=O)c2ccccc2Cl)c1 56.2 µM [inhibitor, single point], COCc1nnc(SCC(=O)Nc2cccc(Cl)c2C)n1-c1ccccc1 3.55 µM [inhibitor, partial curve, poor fit], COc1cc2c(cc1OC)C(C)N(C(=O)c1cc3c(s1)-c1c(C)cccc1OC3)CC2 (configuration not stated) 28.2 µM [activator, partial curve], CCN1CC=C2C(C#N)=C(N)C(C#N)(C#N)C(CCc3ccccc3)C2C1 (configuration not stated) 39.8 µM [activator, partial curve], CCCCN(C)CCCNC(=O)CS(=O)Cc1nc(-c2ccc(OC)c(OC)c2)oc1C (configuration not stated) 3.98 µM [inhibitor, single point], O=C(/C=C(\O)c1ccc(Cl)cc1)C(=O)NNC(=O)C(O)(c1ccccc1)c1ccccc1 28.2 µM [inhibitor, single point], Cc1noc(C)c1S(=O)(=O)N1CCC(C(=O)N2CCN(Cc3ccc4c(c3)OCO4)CC2)CC1 56.2 µM [inhibitor, single point], CC(=O)Nc1ccc(NC(=O)c2ccc(COc3ccc4c(C)cc(=O)oc4c3)cc2)cc1 56.2 µM [activator, single point], CSCCC(NS(=O)(=O)/C=C/c1ccccc1)C(=O)O (configuration not stated) 5.01 µM [inhibitor, single point], c1ccc2c(-c3nc4ncccc4o3)cccc2c1 44.7 µM [activator, partial curve], COc1ccccc1/C=C/C(=O)NCC(=O)N/N=C/c1ccccc1[N+](=O)[O-] 11.2 µM [inhibitor, single point], Cc1ccc(NC(=O)c2ccccc2N(C)S(=O)(=O)c2ccccc2)c(C)c1 0.282 µM [inhibitor, full curve, poor fit], O=C(NNS(=O)(=O)c1ccccc1)c1ccc(S(=O)(=O)N2CCCCC2)cc1 50.1 µM [inhibitor, single point], COc1ccc(N2CCN(C(=O)c3ccc(Br)cc3)CC2)c([N+](=O)[O-])c1 1.12 µM [activator, full curve, poor fit], CN1CC=C2C(C#N)=C(N)C(C#N)(C#N)C(Cc3ccccc3)C2C1 (configuration not stated) 56.2 µM [activator, single point], Cc1ccc(C(C)C)c(OCC(O)CN2CC(C)OC(C)C2)c1 (configuration not stated) 7.08 µM [inhibitor, single point], COc1cccc(S(=O)(=O)NCc2ccc(C(=O)Nc3ccc(Cl)cc3)cc2)c1 39.8 µM [inhibitor, single point], CCN(C(=O)c1coc(=O)c2ccccc12)c1cc(OC)ccc1OC 56.2 µM [inhibitor, single point], COc1ccc(OCC(O)CNc2ccc(Br)cc2)cc1 (configuration not stated) 0.794 µM [inhibitor, full curve], N#CCCn1c(SCC(=O)N2CCN(S(=O)(=O)c3ccccc3)CC2)nc2ccccc21 39.8 µM [inhibitor, partial curve], O=C(CCCc1nc2ccccc2s1)N1CCN(S(=O)(=O)c2cccs2)CC1 44.7 µM [inhibitor, partial curve, poor fit], CC1CCCCC1NCC(=O)Nc1ccccc1-c1ccccc1 (configuration not stated) 31.6 µM [inhibitor, partial curve, poor fit], Cc1ccc(NC(=O)c2ccccc2NC(=O)Cc2ccccc2)cc1 56.2 µM [inhibitor, single point], CCOc1ccc(NC2=NC(C)(C)N=C(N)N2)cc1 5.01 µM [inhibitor, single point], CCN1CCN(c2nc3ccccc3nc2C(C#N)S(=O)(=O)c2ccc(C)c(C)c2)CC1 (configuration not stated) 35.5 µM [inhibitor, single point], CC(C)CC(=O)Nc1ccc2ccccc2c1 50.1 µM [inhibitor, single point], O=C(NCc1ccc(Cl)cc1)c1noc2c1CCCC2 22.4 µM [inhibitor, single point], COc1cc(NC(=O)c2ccc(Br)o2)ccc1NC(=O)c1ccccc1Cl 2.24 µM [inhibitor, partial curve, poor fit], CCOC(=O)C1=C(C)N(C)C(=O)NC1c1cc2c(cc1Br)OCO2 (configuration not stated) 0.794 µM [inhibitor, full curve, poor fit], CCOC(=O)c1ccc(Nc2nc(C(=O)OCC)nc3ccccc23)cc1 12.6 µM [inhibitor, single point], O=C1CC(C(=O)NC2CCCCC2)C(c2ccccc2)O1 (configuration not stated) 11.2 µM [inhibitor, single point], Cc1ccc(NC(=O)CN(C)CC(=O)Nc2cccc(F)c2)cc1S(=O)(=O)N1CCCCCC1 4.47 µM [inhibitor, full curve], COc1cccc2c3c(c(C)nc12)CCN3c1ccccc1 50.1 µM [activator, single point], COc1cccc(-c2cc(C(F)(F)F)c(C#N)c(=O)[nH]2)c1 35.5 µM [activator, partial curve], CCCNC(=O)c1c(N)n(-c2cccc(OC)c2)c2nc3ccccc3nc12 35.5 µM [activator, partial curve]
